The other results are listed elsewhere or left out.
Experiments:
[1] = tested on: HSkMC (human skeletal muscle cells); assay: cytotoxicity call (relative viability < 0.9); conditions: 10 µM
[2] = tested on: HepG2; assay: cytotoxicity call (relative viability < 0.9); conditions: 10 µM
[3] = tested on: S. aureus RN4220; assay: growth inhibition call (relative growth <= 0.2); conditions: 50 µM

| Compound | cytotoxicity call [1] | cytotoxicity call [2] | growth inhibition call [3] |
| --- | --- | --- | --- |
| CCNC(=O)NS(=O)(=O)c1sc(CC(C)C)cc1-c1ccc(Cn2c(-c3ccccc3)nc(OC)c2C=O)cc1 | inactive | inactive | inactive |
| C[C@H](CO)N1C[C@H](C)[C@@H](CN(C)Cc2ccc(C(F)(F)F)cc2)Oc2ccc(NC(=O)NC3CCCCC3)cc2CC1=O | inactive | inactive | inactive |
| C[C@@H]1CCCCO[C@H](CN(C)Cc2ccc(Cl)c(Cl)c2)[C@@H](C)CN([C@H](C)CO)C(=O)c2cc(NC(=O)Nc3ccc(F)cc3)ccc2O1 | inactive | active | inactive |
